Consider 13 compounds from the antibiotic and cytotoxicity screens of Wong et al. (2023).

Each structure is given as a SMILES string. This is one part of the list.

The subject of one experiment is HSkMC (human skeletal muscle cells). Description: cytotoxicity call (relative viability < 0.9). Particulars: 10 µM.
A further experiment deals with HepG2. The experiment is described as follows: cytotoxicity call (relative viability < 0.9). To be noted: 10 µM.
The next experiment deals with S. aureus RN4220. Description: growth inhibition call (relative growth <= 0.2). Particulars: 50 µM.

Consider `C[C@@H]1CN([C@@H](C)CO)C(=O)c2cc(NS(C)(=O)=O)ccc2O[C@@H](C)CCCCO[C@H]1CN(C)C(=O)c1ccncc1`, for which the cytotoxicity call in the experiment with HSkMC and in the experiment with HepG2 was “inactive” in each case. Besides, the growth inhibition call with S. aureus RN4220 was “inactive”.

As to `C[C@@H]1CN([C@@H](C)CO)S(=O)(=O)c2ccc(C#CC3CC3)cc2O[C@H]1CN(C)Cc1ccc(F)cc1`, the cytotoxicity call with HSkMC and in the experiment on HepG2 was “inactive” each time. For the same compound, the growth inhibition call with S. aureus RN4220 was “inactive”.

Take `CN1C(=O)c2cc(NC(=O)c3ccc(F)cc3)ccc2OC[C@H]2O[C@@H](CC(=O)N3CCOCC3)CC[C@H]21`: the cytotoxicity call with HSkMC and with HepG2 was “inactive” in each case. The growth inhibition call in the experiment on S. aureus RN4220 was “inactive”.

Take `C[C@@H]1CN([C@@H](C)CO)C(=O)c2cc(NC(=O)CCC(F)(F)F)ccc2O[C@@H]1CN(C)Cc1ccc(Oc2ccccc2)cc1`: the cytotoxicity call in the experiment with HSkMC was “inactive”. Further, the cytotoxicity call in the experiment with HepG2 is “active”. Further, the growth inhibition call in the experiment with S. aureus RN4220 is “inactive”.

Take `OC[C@@H]1CCCN1`: the cytotoxicity call with HSkMC and with HepG2 was “inactive” in each case. Further, in the experiment on S. aureus RN4220, the growth inhibition call was “inactive”.

For `C[C@@H]1CN([C@H](C)CO)C(=O)c2cc(NS(=O)(=O)c3cccs3)ccc2O[C@@H](C)CCCCO[C@@H]1CN(C)S(=O)(=O)c1cn(C)cn1`, the cytotoxicity call in the experiment with HSkMC and in the experiment with HepG2 was “inactive” in each case. Further, in the experiment with S. aureus RN4220, the growth inhibition call is “inactive”.

With `C[C@@H]1CCCCO[C@@H](CN(C)C(=O)Nc2ccccc2)[C@@H](C)CN([C@@H](C)CO)C(=O)c2cc(NC(=O)NC3CCCCC3)ccc2O1`, the cytotoxicity call with HSkMC and with HepG2 was “inactive” in each case. Further, the growth inhibition call in the experiment with S. aureus RN4220 is “inactive”.

For the compound `O=C(C[C@H]1CC[C@H]2[C@@H](COC[C@H](O)CN2C(=O)Nc2ccc(Cl)c(Cl)c2)O1)NCc1ccc(Cl)c(Cl)c1`, the cytotoxicity call with HSkMC and with HepG2 was “inactive” throughout. The growth inhibition call in the experiment with S. aureus RN4220 was “inactive”.

On to `Cc1noc(C)c1S(=O)(=O)Nc1ccc2c(c1)C(=O)N([C@@H](C)CO)C[C@@H](C)[C@@H](CN(C)C(=O)Nc1ccccc1)OCCCC[C@H](C)O2`, for which the cytotoxicity call in the experiment with HSkMC and with HepG2 was “inactive” in each case. Further, in the experiment with S. aureus RN4220, the growth inhibition call is “inactive”.

Take `Cn1cc(N2C[C@]3(CCN(CCO)C3)CC2=O)cn1`: the cytotoxicity call in the experiment with HSkMC and with HepG2 was “inactive” in each case. The growth inhibition call in the experiment with S. aureus RN4220 is “inactive”.

For `Cc1ccc(S(=O)(=O)N[C@@H](Cc2ccccc2)C(=O)NCCCn2cc(-c3ccc(C(=O)NO)s3)nn2)cc1`, the cytotoxicity call in the experiment with HSkMC and in the experiment on HepG2 was “inactive” each time. The growth inhibition call in the experiment on S. aureus RN4220 was “inactive”.

On to `COc1ccc(CN(C)C[C@H]2Oc3ccc(NC(=O)Nc4cccc5ccccc45)cc3CC(=O)N([C@H](C)CO)C[C@H]2C)cc1`, for which the cytotoxicity call in the experiment with HSkMC and in the experiment with HepG2 was “active” throughout. Besides, the growth inhibition call in the experiment with S. aureus RN4220 was “inactive”.

Consider `C[C@@H]1CCCCO[C@H](CN(C)C(=O)CCC(F)(F)F)[C@@H](C)CN([C@H](C)CO)C(=O)c2cc(NC(=O)NC3CCCCC3)ccc2O1`, for which the cytotoxicity call with HSkMC and in the experiment on HepG2 was “inactive” throughout. Further, the growth inhibition call in the experiment with S. aureus RN4220 was “inactive”.
